# Measured values taken from the supplement of paper PMC11417369.
# The other results are listed elsewhere or left out.
# System: PfAP2-HC AP2 domain (GST-tagged)
# Experiment: gcPBM binding intensity (ln(normalized median fluorescence intensity)); higher = stronger DNA binding
# How it was run: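 Each value is the highest Masliner-normalised natural-log median intensity across replicate spots of either orientation of a probe. The probes were primer-extended double-stranded 36-bp intergenic genomic sequences on an Agilent 4 × 180k array, alongside negative controls, exposed for 1 h to GST-tagged P. falciparum DNA-binding domains expressed in E. coli. Bound protein was picked up with Alexa488 anti-GST antibody and scanned at 488 nm.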
row,Sequence,gcPBM binding intensity (ln)
1,ATATAATTTGATGGTTAACACACATATATATTATAT [CACACA_site8775],9.93
2,TTATTTATTTTTTATACACACAATTATCTTTTTAAG [CACACA_site6162],9.75
3,ATATTTATTTAATGAACACACGATATATTATTTTAT [CACACA_site1602],9.72
4,TGTTTTCCCTTTAGTGTGCACGTATTTCTATTAACA [GTGCAC_site9847],10.1
5,TAAATCATTTATTAAGTGCAATATTCTTTTTGAGAT,9.34
6,TAAAAACATTTAAATTGTACGGAAATAAAAATTTTT [XGTACX_site8225],9.46
7,ATATAAATATTAAATACACACATTTTTGATTAGGTT [CACACA_site7461],9.73
8,AAAATGATAATACCAAGTACACATATGAAAAATACA [XGTACX_site6763],9.91
9,ATGTGTGTATACATCAATTATATATATATTATGTAT [GTGCAC_negctrl_site720],10
10,AAAATAAAAATAACAACACACATATACTATAATATT [CACACA_site2769],10.8
11,TATGTTAAAAAAAAATGTACATATGTTTTTGTTAAA [XGTACX_site4754],9.44
12,AAATGAATAATGATATACAAACAAATCATGTGTTAA [XGTACX_negctrl_site150],9.72
13,GACCCATTATTTTATTGTACTTTTATTATAACGTGA [XGTACX_site156],9.8
14,ATACATTCAAAATATACACACATATATATATAATAT [CACACA_site950],9.86
15,TTTCCCCCATATAATGAACACACACCCTCCTCATAA [CACACA_site8110],10.1
16,ATTTTTTTTAATTTGTACAAATTTTGTTCACAATTT [CACACA_negctrl_site1301],9.8
17,TACCATGTTCAAATTACACACATATAATCTAATATA [CACACA_site2008],9.7
18,TTTATTATTATATTATTTTAATTTTTCTTTAGTACA [GTGCAC_negctrl_site392],9.49
19,CATTTCATTTCTTAATGTACTTTATTCCACCACATA [XGTACX_site5943],9.65

row,Sequence,gcPBM binding intensity (ln)
1,ATAAATATATGAAGTTGTACAAATAATTAACATTAT [XGTACX_site5740],9.94
2,AAATTAAATAAATTTACACACTAAAAATTACATATA [CACACA_site1054],9.6
3,TTATATATGTATTAATGTACATAGTTGAGAAAGGTA [XGTACX_site1511],9.71
4,AAAGGGACATATATATCACACACAAAAATTAGTCCC [CACACA_site8897],10
5,TAATATCTACATATATGTACATATATATATATATAT [XGTACX_site7979],9.97
6,GGAAGCTAATTACACACATGCATATTTTTTTTTCAA [TGCATGCA_site548],9.87
7,ATAATATAGAACAATACATGCAAATGGCTTAAATTT [TGCATGCA_site521],9.79
8,ATGGGACAGATATATACACACATATAAATATAAATA [CACACA_site6684],10
9,ATGTTATATTATAAAAGTACATTTTATTTTTATTTA [XGTACX_site4365],9.61
10,ATTTCCTTTTTCTGTTGTACTCATAAAATAATATGT [XGTACX_site7234],9.82
11,GTTAAGTGTATATATACACACATATGTAATACATGA [CACACA_site3048],9.95
12,ATATGTAGAATAAAAAAAAAAAAAAAAAAAAAAAAT [CACACA_negctrl_site621],9.64
13,TAATTAAAATTATATATTAGAAAAAACATATAAAAC [CACACA_negctrl_site190],9.56
14,TAAAAATATATGTATACACACATATATATATATATA [CACACA_site3951],9.79
15,AAAAAAAGTGACTCCTTACACACTTTACATAATTTA [CACACA_site820],9.63
16,AATATTGAAATAACGCGTACAAAAAAAAGTTATATT [XGTACX_site6559],9.99
17,AATGAAATAATACAATGTACGTTAAAAAAAAATAAA [XGTACX_site7928],9.69
18,TAATATCAAACCTATAGTACATAAGGTATAAAAAAG [XGTACX_site3533],9.72
19,GTATTATTTTATGATGCATGTGTATTTCATATATGC [TGCATGCA_site660],9.87

row,Sequence,gcPBM binding intensity (ln)
1,AATATAACTTTTTGCACACTTAATTTTTTTTTTTAA [CACACA_site3365],10
2,TAACAAAAAGCACTTAGTACATATATATATATATAT [XGTACX_site1099],10.1
3,TATATTTATTATAACACACACATATTTATATTATAG [CACACA_site6628],9.9
4,TTTCTTTTTAAATATATACACACCGGGTGTACATAT [CACACA_site3345],9.89
5,AGGTAATATACTAAATGTACAGAAAAACGAATTTTT [XGTACX_site2977],9.7
6,ACTTCCTATATTTATGCATGCATTTTATTAAAAAAT [TGCATGCA_site747],9.88
7,ATATATCATGAACCTTGTACGTATATATATATATAT [XGTACX_site239],9.8
8,TATACAATATTTATAACACACATATTTATATAAACT [CACACA_site6932],9.73
9,AGAACATTTTCTCAGTGTACTTATATATTTGACATA [XGTACX_site6541],9.61
10,ACTAAACAATATGTATGTACATATTTTACATATAAT [XGTACX_site3318],9.79
11,TACAGACAGAAACACACACACACGCATAAAAAAAAA [CACACA_site1514],10.5
12,TAATAATAACCGTTATGTACACAATTTTGTGAACAT [XGTACX_site8053],9.6
13,GATGGAATCTAATTTACATGCAGTGATATAATAAAT [TGCATGCA_site1031],9.55
14,ATTTATTTATTTATATGTACATATATATATATATAT [XGTACX_site339],9.95
15,AAAGTTTTAAGAAAATGTACATAAGTATACATATAT [XGTACX_site1293],9.66
16,TTTTTCTATTCCATTCAACACACAAAAATGTATGCT [CACACA_site8268],9.88
17,TGCATTTTACTTGTTACACACATATAAAATTAACCA [CACACA_site7387],9.74
18,ATTCTTGTTATATAAGGTACAGAACAAAATATAAAA [XGTACX_site5510],9.61
19,TTTGGGATAAAACAAAGTACTAACAAAATATATAAT [XGTACX_site8240],9.64
